From the supplement of paper PMC3334620
Over roughly 33,000 sequences, “E-score (-0.5 to 0.5)” has its median near -0.035; the highest 2% begin near 0.35. Some of the results follow.

target: T1, Pdr3 (UniProt P33200); test: PBM E-score (8-mer binding enrichment) (E-score (-0.5 to 0.5)); higher = stronger / more preferred TF binding; most listed sequences are background and not binding sites; conditions: protein concentration: 200 nM; construct: GST-full length
T1 sequence: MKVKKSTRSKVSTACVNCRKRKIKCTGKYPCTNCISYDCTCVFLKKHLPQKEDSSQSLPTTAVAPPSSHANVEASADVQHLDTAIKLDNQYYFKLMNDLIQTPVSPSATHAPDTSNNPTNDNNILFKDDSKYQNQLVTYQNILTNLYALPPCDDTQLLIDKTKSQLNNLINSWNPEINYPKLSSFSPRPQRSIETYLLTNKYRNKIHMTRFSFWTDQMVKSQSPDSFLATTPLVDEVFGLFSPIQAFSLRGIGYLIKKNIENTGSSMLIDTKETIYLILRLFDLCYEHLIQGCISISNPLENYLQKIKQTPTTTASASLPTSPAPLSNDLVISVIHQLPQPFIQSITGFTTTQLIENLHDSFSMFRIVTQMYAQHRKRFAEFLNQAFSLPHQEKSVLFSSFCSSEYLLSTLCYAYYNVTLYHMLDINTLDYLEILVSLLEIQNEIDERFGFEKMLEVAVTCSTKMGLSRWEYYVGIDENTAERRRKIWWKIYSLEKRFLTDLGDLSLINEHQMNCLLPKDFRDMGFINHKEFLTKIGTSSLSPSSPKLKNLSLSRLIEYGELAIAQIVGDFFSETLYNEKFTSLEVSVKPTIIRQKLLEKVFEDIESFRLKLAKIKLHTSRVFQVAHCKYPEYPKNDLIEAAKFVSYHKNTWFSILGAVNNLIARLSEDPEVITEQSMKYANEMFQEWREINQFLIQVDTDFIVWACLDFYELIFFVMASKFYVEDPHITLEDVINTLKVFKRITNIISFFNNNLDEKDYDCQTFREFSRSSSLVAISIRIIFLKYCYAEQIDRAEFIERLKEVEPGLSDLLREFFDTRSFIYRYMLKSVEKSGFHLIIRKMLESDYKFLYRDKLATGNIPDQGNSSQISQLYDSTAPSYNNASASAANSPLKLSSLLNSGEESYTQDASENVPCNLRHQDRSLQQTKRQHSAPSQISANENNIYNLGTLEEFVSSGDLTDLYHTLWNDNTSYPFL
Outline: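 Universal all-10-mer Agilent arrays, double-stranded by primer extension on fresh or once-stripped slides, were probed with about 100-200 nM GST-tagged yeast transcription factors made by PURExpress. Fluorescent anti-GST detected bound protein, and masliner normalised the scans. E-scores from the Universal PBM Analysis Suite were given to each ungapped eight-base word pooled with its reverse complement.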

Row | Sequence | PBM E-score
1 | AGCAGTCG | -0.0929
2 | ACCGAAAT | 0.165
3 | AGCCACCC | -0.0168
4 | AGCCGTAC | 0.0182
5 | CGAGCATC | 0.0131
6 | AGAACGAA | -0.0223
7 | AGCCGACT | -0.0192
8 | TCTGGGCA | 0.0661
9 | ACAAACAG | -0.017
10 | GATAAGAA | 0.0958
11 | TGAAGACA | -0.0366
12 | CGCGCCGA | 0.162
13 | CCCGGCCA | 0.242
14 | AGAAGCAC | -0.185
15 | ATCTAACG | -0.0549
16 | GGTGCTCA | -0.0879
17 | AATCTAGA | -0.233
18 | CGGACCGC | 0.344
19 | ACCTAAGC | -0.00804
20 | CGGATACC | 0.31
21 | AGATCAGA | -0.172
22 | CGTTCTCC | 0.103

Row | Sequence | PBM E-score
23 | AGTAGGAC | -0.134
24 | TGCCACCA | -0.256
25 | ACGTTAAG | -0.18
26 | ACTGATAG | -0.194
27 | ACCCTTGA | -0.043
28 | ACAATGCG | 0.0246
29 | ACAGTGTA | -0.0466
30 | GAGTTGCC | 0.121
31 | CCTATGAG | -0.182
32 | AAGACGTC | -0.151
33 | AGATGACG | -0.166
34 | AGAGCGAC | -0.135
35 | AAAAACGC | 0.0456
36 | AACTGTCA | -0.0445
37 | ACCTGCAG | -0.284
38 | AGTTGCGA | -0.162
39 | CATCTCGC | -0.0549
40 | AGCTAGTC | -0.0629
41 | CCCTCGAG | -0.166
42 | TCACGTCA | -0.0775
43 | TTTGCAAA | -0.132
44 | GTCTAGCA | -0.165

Row | Sequence | PBM E-score
45 | AGTGGGGC | -0.132
46 | GAAGTGCA | 0.00237
47 | AAGATAAT | 0.025
48 | GCGGTCAA | 0.125
49 | CCGCGGTC | 0.432
50 | GCCCTAGC | -0.199
51 | CATATTTA | 0.0589
52 | TAAAGTGA | -0.0775
53 | ACGGTAAA | 0.0442
54 | ACTCCAAG | -0.149
55 | TATACAAA | -0.107
56 | GTCGACAA | -0.014
57 | CCAATGAG | -0.174
58 | AGCTGTCG | -0.163
59 | ACAAGTTC | -0.0179
60 | ACCGAGAG | 0.109
61 | AACGGACC | 0.303
62 | CCGAAGAG | 0.129
63 | GGGCGTGA | 0.055
64 | GCCGCTTA | 0.114
65 | AGCCAGAT | -0.0083
66 | GGAACTAA | 0.296

Row | Sequence | PBM E-score
67 | AATTACGC | -0.225
68 | CTGACGGC | 0.148
69 | ATCACAGA | -0.118
70 | AGGCAAAA | -0.00637
71 | CGCTCGCA | 0.161
72 | AAAACAGA | -0.0591
73 | ACTCTGTC | -0.158
74 | GCCACGAA | -0.152
75 | ATACTTTC | 0.0491
76 | CTTGATAA | -0.0707
77 | GTCAGCAC | -0.127
78 | TAATCCAA | -0.115
79 | CCCCAAAC | -0.0986
80 | CCCTCTCA | -0.358
81 | ACTCGAAG | -0.183
82 | CCCGAGTA | 0.162
83 | ACCCCCAT | -0.146
84 | ATATGTCC | 0.138
85 | CTTCCTAA | -0.211
86 | CCGCACTA | 0.241
87 | CCGAACCC | 0.136
88 | CGTGGGAG | -0.0135

Row | Sequence | PBM E-score
89 | ACTAAGCA | -0.375
90 | CCTGCTGC | 0.00649
91 | GAAGTGTC | -0.0297
92 | ACTGAGTG | -0.145
93 | AGGTTTCA | 0.0193
94 | TACTATCA | 0.0314
95 | ACCCGCGT | 0.0485
96 | CATATACC | 0.0211
97 | GTTTCGCA | -0.151
98 | GGGGCAGA | -0.0181
99 | ATCAGAGA | -0.108
100 | CATTCTAA | -0.132
101 | AATCACTC | -0.313
102 | ACGCACCA | 0.00472
103 | CTGTTTGC | -0.0556
104 | CTACATGA | -0.0682
105 | CGATTGAA | -0.055
106 | AGGCCACG | 0.0493
107 | TAGCGCGA | 0.0544
108 | CGATAGTA | -0.0357
109 | ACGGGAAC | 0.33
110 | AGAAGGAA | 0.0224
